System: TonB210 cells
Assay: Tyrosine-phosphorylated proteins in total cell lysates, TonB210
Conditions: at the end of drug treatments

For `Cc1ccc(NC(=O)c2ccc(CN3CCN(C)CC3)cc2)cc1Nc1nccc(-c2cccnc2)n1` [STI571, 4-[(4-methyl-piperazinyl)methyl]-N-[4-methyl-3-[[4-(3-pyrodnyl)-2-pyrimidinyl]amin]phenyl]benzamide methanesul-fonate], the “overall levels of tyrosine-phosphorylated proteins” value was “decreased”.

— patent publication US7238525B2, “Strategy for leukemia therapy” (The Regents of the University of California, priority 2000, dated 2007)
